Data: the supplement of paper PMC8728848
This is one part of the list.

Legend:
Test in all cases: glycan array binding signal (z-score within array); higher = stronger binding
Details in all cases: glycan notation: IUPAC condensed, linker removed
[1] = target: Neu5Ac(a2-3)Gal(b1-3)GlcNAc6S
In short: (§1)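 Arrays were curated from the Consortium for Functional Glycomics database, 3228 in total, and kept only where the protein sequence was available. Binding is expressed as a within-array Z-score. This score was averaged across arrays of the same protein sequence at different concentrations or buffers and across linkers, and negative values can be read as non-binding.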

[2] = target: Neu5Ac(a2-3)Gal(b1-3)[Fuc(a1-4)]GlcNAc
In short: as §1

[3] = target: Neu5Ac(a2-3)Gal(b1-3)[Fuc(a1-4)]GlcNAc(b1-3)Gal(b1-3)[Fuc(a1-4)]GlcNAc
In short: as §1

[4] = target: Neu5Ac(a2-3)Gal(b1-3)[Fuc(a1-4)]GlcNAc(b1-3)Gal(b1-4)[Fuc(a1-3)]GlcNAc
In short: as §1

[5] = target: Neu5Ac(a2-3)Gal(b1-3)[GlcNAc(b1-6)]GalNAc
In short: as §1

[6] = target: Neu5Ac(a2-3)Gal(b1-3)[Neu5Ac(a2-6)]GalNAc
In short: as §1

[7] = target: Neu5Ac(a2-3)Gal(b1-3)[Neu5Ac(a2-6)]GlcNAc(b1-3)[Fuc(a1-3)[Gal(b1-4)]GlcNAc(b1-6)]Gal(b1-4)Glc
In short: as §1

[8] = target: Neu5Ac(a2-3)Gal(b1-3)]Neu5Ac(a2-3)Gal(b1-4)]GlcNAc
In short: as §1

Neu5Ac(a2-3)Gal(b1-4)Glc = target: Neu5Ac(a2-3)Gal(b1-4)Glc
In short: as §1

[9] = target: Neu5Ac(a2-3)Gal(b1-4)GlcNAc
In short: as §1

[10] = target: Neu5Ac(a2-3)Gal(b1-4)GlcNAc(b1-2)Man
In short: as §1

[11] = target: Neu5Ac(a2-3)Gal(b1-4)GlcNAc(b1-2)Man(a1-3)[GlcNAc(b1-4)][Neu5Ac(a2-3)Gal(b1-4)GlcNAc(b1-2)Man(a1-6)]Man(b1-4)GlcNAc(b1-4)GlcNAc
In short: as §1

[12] = target: Neu5Ac(a2-3)Gal(b1-4)GlcNAc(b1-2)Man(a1-3)[Neu5Ac(a2-3)Gal(b1-4)GlcNAc(b1-2)Man(a1-6)]Man(b1-4)GlcNAc(b1-4)GlcNAc
In short: as §1

[13] = target: Neu5Ac(a2-3)Gal(b1-4)GlcNAc(b1-2)Man(a1-3)[Neu5Ac(a2-3)Gal(b1-4)GlcNAc(b1-2)Man(a1-6)]Man(b1-4)GlcNAc(b1-4)[Fuc(a1-6)]GlcNAc
In short: as §1

[14] = target: Neu5Ac(a2-3)Gal(b1-4)GlcNAc(b1-2)Man(a1-3)[Neu5Ac(a2-6)Gal(b1-4)GlcNAc(b1-2)Man(a1-6)]Man(b1-4)GlcNAc(b1-4)GlcNAc
In short: as §1

[15] = target: Neu5Ac(a2-3)Gal(b1-4)GlcNAc(b1-2)[Neu5Ac(a2-3)Gal(b1-4)GlcNAc(b1-4)]Man(a1-3)[GlcNAc(b1-4)][Neu5Ac(a2-3)Gal(b1-4)GlcNAc(b1-2)[Neu5Ac(a2-3)Gal(b1-4)GlcNAc(b1-6)]Man(a1-6)]Man(b1-4)GlcNAc(b1-4)GlcNAc
In short: as §1

[16] = target: Neu5Ac(a2-3)Gal(b1-4)GlcNAc(b1-2)[Neu5Ac(a2-3)Gal(b1-4)GlcNAc(b1-4)]Man(a1-3)[GlcNAc(b1-4)][Neu5Ac(a2-3)Gal(b1-4)GlcNAc(b1-4)Man(a1-6)]Man(b1-4)GlcNAc(b1-4)GlcNAc
In short: as §1

[17] = target: Neu5Ac(a2-3)Gal(b1-4)GlcNAc(b1-2)[Neu5Ac(a2-3)Gal(b1-4)GlcNAc(b1-6)]Man(a1-6)[Neu5Ac(a2-3)Gal(b1-4)GlcNAc(b1-2)Man(a1-3)]Man(b1-4)GlcNAc(b1-4)GlcNAc
In short: as §1

[18] = target: Neu5Ac(a2-3)Gal(b1-4)GlcNAc(b1-2)[Neu5Ac(a2-3)Gal(b1-4)GlcNAc(b1-6)]Man(a1-6)[Neu5Ac(a2-3)Gal(b1-4)GlcNAc(b1-2)Man(a1-3)][GlcNAc(b1-4)]Man(b1-4)GlcNAc(b1-4)GlcNAc
In short: as §1

[19] = target: Neu5Ac(a2-3)Gal(b1-4)GlcNAc(b1-3)Gal
In short: as §1

[20] = target: Neu5Ac(a2-3)Gal(b1-4)GlcNAc(b1-3)Gal(b1-3)GlcNAc
In short: as §1

[21] = target: Neu5Ac(a2-3)Gal(b1-4)GlcNAc(b1-3)Gal(b1-4)GlcNAc
In short: as §1

[22] = target: Neu5Ac(a2-3)Gal(b1-4)GlcNAc(b1-3)Gal(b1-4)GlcNAc(b1-2)Man(a1-3)[Neu5Ac(a2-3)Gal(b1-4)GlcNAc(b1-3)Gal(b1-4)GlcNAc(b1-2)Man(a1-6)]Man(b1-4)GlcNAc(b1-4)GlcNAc
In short: as §1

[23] = target: Neu5Ac(a2-3)Gal(b1-4)GlcNAc(b1-3)Gal(b1-4)GlcNAc(b1-3)Gal(b1-4)GlcNAc
In short: as §1

[24] = target: Neu5Ac(a2-3)Gal(b1-4)GlcNAc(b1-3)Gal(b1-4)GlcNAc(b1-3)Gal(b1-4)GlcNAc(b1-2)Man(a1-3)[Neu5Ac(a2-3)Gal(b1-4)GlcNAc(b1-3)Gal(b1-4)GlcNAc(b1-3)Gal(b1-4)GlcNAc(b1-2)Man(a1-6)]GalNAc
In short: as §1

[25] = target: Neu5Ac(a2-3)Gal(b1-4)GlcNAc(b1-3)Gal(b1-4)GlcNAc(b1-3)GalNAc
In short: as §1

[26] = target: Neu5Ac(a2-3)Gal(b1-4)GlcNAc(b1-3)Gal(b1-4)GlcNAc(b1-3)[Neu5Ac(a2-3)Gal(b1-4)GlcNAc(b1-3)Gal(b1-4)GlcNAc(b1-6)]GalNAc
In short: as §1

[27] = target: Neu5Ac(a2-3)Gal(b1-4)GlcNAc(b1-3)Gal(b1-4)GlcNAc(b1-6)[Gal(b1-3)]GalNAc
In short: as §1

[28] = target: Neu5Ac(a2-3)Gal(b1-4)GlcNAc(b1-3)Gal(b1-4)[Fuc(a1-3)]GlcNAc
In short: as §1

[29] = target: Neu5Ac(a2-3)Gal(b1-4)GlcNAc(b1-3)GalNAc
In short: as §1

B1: CvGal2 (Crassostrea virginica) (protein)
chain: MGSSHHHHHHSSGLVPRGSHMRIREAGKRKDTTKVYQIPDGLFPGQQVMLRGRVPWGSKSFSINFSATPRMGEGDILFHLNPRPSEGVCIRNALLNGSWGAEEKWQPYFPFDDGRSFSVKIEVTNDAFRTFVNGRPFVDFLHRTDFRAGKYLTLREGAEYYDVIFQSKPNIPLTTAIHNGMRIGKTIRIRGMCTAQDGFAINFNDNRNNIYFHFNARPAQRTVVRNSYFGSWGNEETAISKEFPFYPFLYFYASFVCMEDKFAVYVNDEHFIDFAHRGNPNNISVLQIKGSVNVLDTECLEPMGEDAMTEVDSGLENGDLFVLNGLMTERGKTFAVNFLNGFTENDDIALHFNPRKSTGEVVLNSRYGGAWQSEEKVALPGVFWSNRPLQVKVETKRNKFKIYVNGVDLAKYKIRGNVEDVHAVQVKGDVFLLETLLLKRLMKPVWERLTGGIRPGTWVTLQGTPKKNWQQFVVNFALDDTLDGDIAFHFNVRRGARQVVRNHRQSGAWGREETVTPFFAFDSEATFEIVFFVKEEKFLIYFNGKLFFEFVHRVPVERITHIYMDGDCNFYEPEVVI
- glycan array binding signal (z-score) [1]: -0.333
- glycan array binding signal (z-score) [2]: -0.33
- glycan array binding signal (z-score) [3]: -0.321
- glycan array binding signal (z-score) [4]: -0.324
- glycan array binding signal (z-score) [5]: -0.342
- glycan array binding signal (z-score) [6]: -0.339
- glycan array binding signal (z-score) [7]: -0.311
- glycan array binding signal (z-score) [8]: -0.332
- glycan array binding signal (z-score) (Neu5Ac(a2-3)Gal(b1-4)Glc): -0.334
- glycan array binding signal (z-score) [9]: -0.329
- glycan array binding signal (z-score) [10]: -0.234
- glycan array binding signal (z-score) [11]: -0.338
- glycan array binding signal (z-score) [12]: -0.336
- glycan array binding signal (z-score) [13]: -0.324
- glycan array binding signal (z-score) [14]: -0.326
- glycan array binding signal (z-score) [15]: -0.334
- glycan array binding signal (z-score) [16]: -0.338
- glycan array binding signal (z-score) [17]: -0.325
- glycan array binding signal (z-score) [18]: -0.333
- glycan array binding signal (z-score) [19]: -0.34
- glycan array binding signal (z-score) [20]: -0.342
- glycan array binding signal (z-score) [21]: -0.337
- glycan array binding signal (z-score) [22]: -0.31
- glycan array binding signal (z-score) [23]: -0.337
- glycan array binding signal (z-score) [24]: -0.302
- glycan array binding signal (z-score) [25]: -0.321
- glycan array binding signal (z-score) [26]: -0.323
- glycan array binding signal (z-score) [27]: -0.325
- glycan array binding signal (z-score) [28]: -0.34
- glycan array binding signal (z-score) [29]: -0.271
